Over roughly 2,900 compounds, “IRF Lucia reporter activity, fold change vs agonist alone” has its median near 0.9; the highest 2% begin near 2.8. This is one part of the list.
Key:
[1] = test system: RAW-Dual; assay: IRF Lucia reporter activity, fold change vs agonist alone; higher = enhanced IRF activity; conditions: library stock concentration (final ~1000-fold dilution): 10 mM; cytotoxicity flag (confluency mask): not cytotoxic; agonist: MPLA (TLR4) […]
Outline: (§1)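 Cytotoxic wells were those whose IncuCyte confluency was below 70% of agonist controls in both mask sets. The cells were RAW-Dual macrophages at 50,000 cells/well in DMEM on 384-well plates, dosed with 50 nL of library stock by pin tool, stimulated with a PRR agonist 1 h later, and kept at 37 °C, 5% CO2 for 20 hours. IRF and NF-κB reporter activity, as fold change over agonist-alone wells, came from supernatant read by QuantiLuc luminescence and QuantiBlue absorbance, respectively.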

[2] = test system: RAW-Dual; assay: IRF Lucia reporter activity, fold change vs agonist alone; cytotoxicity flag (confluency mask): not cytotoxic; higher = enhanced IRF activity
Outline: as §1

[3] = agonist: 3'3'-cGAMP (STING) 10 ug/mL

SMILES | IRF Lucia reporter activity [1] | IRF Lucia reporter activity [2, 3] | IRF Lucia reporter activity ([2]; agonist: LPS (TLR4) 0.1 ug/mL)
CC(C)n1cnc2c(NCCc3ccc(O)cc3)nc(-c3csc4ccccc34)nc21 | 1.81 |  | 
CC(CS)C(=O)N1CCCC1C(=O)O (stereo unspecified) | 0.97 |  | 
CC(CS)C(=O)N1CCCC1C(=O)O (stereo unspecified) (library stock concentration (final ~1000-fold dilution): 10 mM) |  | 1.11 | 0.934
Cc1nc2c(O)cccc2c(=O)[nH]1 (library stock concentration (final ~1000-fold dilution): 10 mM) |  | 1.12 | 0.96
O=C(NNc1ccccc1)c1ccncc1 (library stock concentration (final ~1000-fold dilution): 10 mM) |  | 0.679 | 1.01
Cn1c(=O)c(F)c(Nc2ccc(I)cc2F)c2c(=O)n(CC(O)CO)cnc21 (stereo unspecified) | 1.23 |  | 
Cn1c(=O)c(F)c(Nc2ccc(I)cc2F)c2c(=O)n(CC(O)CO)cnc21 (stereo unspecified) (library stock concentration (final ~1000-fold dilution): 10 mM) |  | 0.517 | 0.819
c1cc(CN2CCCNCCNCCCNCC2)ccc1CN1CCCNCCNCCCNCC1 (library stock concentration (final ~1000-fold dilution): 2 mM water) |  | 1.1 | 0.745
C#Cc1cccc(Nc2ncnc3cc(OC)c(NC(=O)N4CC5CCN(C)C5C4)cc23)c1 (stereo unspecified) (library stock concentration (final ~1000-fold dilution): 10 mM) |  | 0.535 | 0.922
CC(=O)O[C@@H]1CC[C@@]2(C)[C@@H](CC[C@]3(C)[C@@H]2C(=O)C=C2[C@@H]4[C@@H](C)[C@H](C)CC[C@]4(C)CC[C@]23C)[C@@]1(C)C(=O)O (library stock concentration (final ~1000-fold dilution): 10 mM) |  | 1.12 | 0.479
C=CC1(C)CC(OC(=O)CSCCN(CC)CC)C2(C)C(C)CCC3(CCC(=O)C32)C(C)C1O (stereo unspecified) | 1.03 |  | 
C=CC1(C)CC(OC(=O)CSCCN(CC)CC)C2(C)C(C)CCC3(CCC(=O)C32)C(C)C1O (stereo unspecified) (library stock concentration (final ~1000-fold dilution): 10 mM) |  | 0.332 | 1.46
O=C(O)CN(CC(=O)O)c1ccccc1OCCOc1ccccc1N(CC(=O)O)CC(=O)O (library stock concentration (final ~1000-fold dilution): 10 mM) |  | 0.984 | 1.2
Cc1cc(C#N)cc(C)c1Oc1nc(Nc2ccc(C#N)cc2)nc(N)c1Br | 2.4 |  | 
Cc1cc(C#N)cc(C)c1Oc1nc(Nc2ccc(C#N)cc2)nc(N)c1Br (library stock concentration (final ~1000-fold dilution): 10 mM) |  | 1.09 | 2.87
COC(=O)c1ccc(O)c(O)c1 (library stock concentration (final ~1000-fold dilution): 10 mM) |  | 0.264 | 0.878
CNS(=O)(=O)CC1CCC(N(C)c2ncnc3[nH]ccc23)CC1.O=C(O)/C=C\C(=O)O (stereo unspecified) (library stock concentration (final ~1000-fold dilution): 10 mM) |  | 0.106 | 0.264
CCC(C)Nc1cc(C(=O)NC2CC3CCC(C2)N3c2ccc(C(=O)C3CC3)cn2)c(C)cc1C(N)=O (stereo unspecified) (library stock concentration (final ~1000-fold dilution): 10 mM) |  | 0.482 | 0.924
CCC(C)Nc1cc(C(=O)NC2CC3CCC(C2)N3c2ccc(C(=O)C3CC3)cn2)c(C)cc1C(N)=O (stereo unspecified) | 0.838 |  | 
COc1ccc(-c2coc3cc(O[C@@H]4O[C@H](CO)[C@@H](O)[C@H](O)[C@H]4O)ccc3c2=O)cc1O (library stock concentration (final ~1000-fold dilution): 10 mM) |  | 0.018 | 0.0222
CNC(=O)c1ccc2cc(C3(O)CCn4cncc43)ccc2c1 (stereo unspecified) (library stock concentration (final ~1000-fold dilution): 10 mM) |  | 1.05 | 1.04
CNC(=O)c1ccc2cc(C3(O)CCn4cncc43)ccc2c1 (stereo unspecified) | 0.973 |  | 
Cc1nc2ccc(NC(=O)Nc3ccnc4cccnc34)cc2o1 | 0.93 |  | 
Cc1nc2ccc(NC(=O)Nc3ccnc4cccnc34)cc2o1 (library stock concentration (final ~1000-fold dilution): 10 mM) |  | 0.172 | 0.65
Oc1nc(-c2ccc(C(F)(F)F)cc2)nc2c1CSCC2 (library stock concentration (final ~1000-fold dilution): 10 mM) |  | 0.908 | 1.1
Oc1nc(-c2ccc(C(F)(F)F)cc2)nc2c1CSCC2 | 0.892 |  | 
NC(=O)N1c2ccccc2CC(=O)c2ccccc21 (library stock concentration (final ~1000-fold dilution): 10 mM) |  | 1.08 | 0.934
NC(=O)N1c2ccccc2CC(=O)c2ccccc21 | 1.14 |  | 

Reference: the supplement of paper PMC10037445
